Biological target: EGFR on BxPC-3 cells (UniProt P00533)
Experiment: cell-based or functional assay

TDCC EC50 (pM): 0.0939 pM
B1: SI-55H11 (other)
heavy: EIVLTQSPSTLSVSPGERATFSCRASQSIGTNIHWYQQKPGKPPRLLIKYASESISGIPDRFSGSGSGTEFTLTISSVQSEDFAVYYCQQNNNWPTTFGPGTKLTVLGGGGSGGGGSGGGGSGGGGSQVQLQQSGPGLVKPSETLSITCTVSGFSLTNYGVHWIRQAPGKGLEWLGVIWSGGNTDYNTPFTSRFTITKDNSKNQVYFKLRSVRADDTAIYYCARALTYYDYEFAYWGQGTLVTVSSGGGGSGGGGSGGGGSGGGGSEVQLVESGGGLVQPGGSLRLSCAASGFTISTNAMSWVREAPGKCLEWIGVITGRDITYYASWAKGRFTISRDNSKNTLYLQMNSLRAEDTAVYYCARDGGSSAITSNNIWGQGTLVTVSSASTKGPSVFPLAPSSKSTSGGTAALGCLVKDYFPEPVTVSWNSGALTSGVHTFPAVLQSSGLYSLSSVVTVPSSSLGTQTYICNVNHKPSNTKVDKRV[human IgG1 Fc with changes left out here]GGGGSGGGGSEVQLLESGGGLVQPGGSLRLSCAASGFSFSSGYDMCWVRQAPGKGLEWIACIAAGSAGITYDANWAKGRFTISRDNSKNTLYLQMNSLRAEDTAVYYCARSAFSFDYAMDLWGQGTLVTVSSGGGGSGGGGSGGGGSGGGGSDIQMTQSPSTLSASVGDRVTITCQASQSISSHLNWYQQKPGKAPKLLIYKASTLASGVPSRFSGSGSGTEFTLTISSLQPDDFATYYCQQGYSWGNVDNVFGGGTKVEIKGGGGSGGGGSGRSLVESGGGLVQPGGSLRLSCTASGFTISSYHMQWVRQAPGKGLEYIGTISSGGNVYYASSARGRFTISRPSSKNTVDLQMNSLRAEDTAVYYCARDSGYSDPMWGQGTLVTVSSGGGGSGGGGSGGGGSGGGGSDVVMTQSPSSVSASVGDRVTITCQASQNIRTYLSWYQQKPGKAPKLLIYAAANLASGVPSRFSGSGSGTDFTLTISDLEPGDAATYYCQSTYLGTDYVGGAFGGGTKVEIK
light: ENVLTQSPASLSASPGERVTITCSASSSVSYMHWYQQKPGQAPKLWIYDTSKLASGVPSRFSGSGSGNDHTLTISSMEPEDFATYYCFQGSVYPFTFGQGTKVTVLGGGGSGGGGSGGGGSGGGGSQVTLKESGPGLVQPGQTLSLTCAFSGFSLSTSGMGVGWIRQPPGKGLEWLAHIWWDDDKRYNPALKSRLTISKDTSKNQVYLQMNSLDAEDTAVYYCARMELWSYYFDYWGQGTLVTVSSGGGGSGGGGSDVVMTQSPSTLSASVGDRVTINCQASESISSWLAWYQQKPGKAPKLLIYEASKLASGVPSRFSGSGSGTEFTLTISSLQPDDFATYYCQGYFYFISRTYVNSFGCGTKVEIKRTVAAPSVFIFPPSDEQLKSGTASVVCLLNNFYPREAKVQWKVDNALQSGNSQESVTEQDSKDSTYSLSSTLTLSKADYEKHKVYACEVTHQGLSSPVTKSFNRGECGGGGSGGGGSGGGGSQSALTQPASVSGSPGQSITISCTGTSSDVGGYNFVSWYQQHPGKAPKLMIYDVSDRPSGVSDRFSGSKSGNTASLIISGLQADDEADYYCSSYGSSSTHVIFGGGTKVTVLGGGGSGGGGSGGGGSGGGGSQVQLQESGGGLVKPGGSLSLSCAASGFTFSSYWMSWVRQAPGKGLEWVANINRDGSASYYVDSVKGRFTISRDDAKNSLYLQMNSLRAEDTAVYYCARDRGVGYFDLWGRGTLVTVSS
